Measured values published in patent publication US20250235545A1, “POLYPEPTIDE CONJUGATE AND USE THEREOF” (SHANGHAI CHIXI BIOMEDICAL TECHNOLOGY CO., LTD, priority 2024, published 2025).
Like-named read-outs stand apart in the source and are kept apart here. Part of at least one peptide drawing is inferred or uncertain, most often the ends. Where a SMILES comes first, the peptide text is derived from it. The star is where a group is joined. X1 = CC[C@@]1(O)C(=O)OCc2c1cc1n(c2=O)Cc2c-1nc1ccccc1c2CCN(C1CCC1)*; X3 = CC[C@@]1(O)C(=O)OCc2c1cc1n(c2=O)Cc2c-1nc1ccccc1c2CCN(C1CC1)*; Propanoyl(3-maleimido) = O=C1C=CC(=O)N1CCC(=O)*; PEG6 = NCCOCCOCCOCCOCCOCCOCCC(=O)O

How the values were obtained:
[1] = test system: A2780 ovarian cancer tumor model; test: Efficacy in animal model of A2780 ovarian cancer, 30 mg/kg once a week for two weeks (Example 41); format: in vivo, BALB/c mice
Protocol: Test objective: To further compare the antitumor efficacy of different polypeptide Linkers in an animal tumor model of A2780 ovarian cancer.
(§1) Test drug: Polypeptide conjugate and normal saline control group.
8×10^6 corresponding cells were injected into right axillas of nude mice subcutaneously. […] The negative control group was administered normal saline. Administration was performed once a week for two weeks.

[2] = test system: sarcoma SJSA-1 tumor model; test: Efficacy in animal model of sarcoma SJSA-1, 30 mg/kg once a week for two weeks (Example 40); format: in vivo, BALB/c mice
Protocol: Test objective: To further compare the antitumor efficacy of different polypeptide Linkers in an animal tumor model of sarcoma SJSA-1.
as §1
The control group was administered normal saline. Administration was performed once a week for two weeks.

[3] = test system: colo320 colorectal cancer tumor model; conditions: Table 8
Protocol: Test objective: To investigate the antitumor efficacy of the above compounds in an animal tumor model of colo320 colorectal cancer.
(§2) Test drug: Polypeptide conjugate, Irinotecan, Belotecan and normal saline control group.
(§3) Test animals: 6-8 weeks old BALB/c mice, all female.
(§4) Passaging was performed every three days, and cells within 15 generations were used. 7.5×10^6 corresponding cells were injected into right chests of nude mice subcutaneously. After a volume of the tumors reached at least 120 mm^3, the mice were grouped randomly, with three mice in each group. Then treatment was started, and the day when the treatment was started was the first day. […] The control group was administered with normal saline. Administration was performed once a week for four weeks.

[4] = test system: sarcoma SJSA-1 tumor model; conditions: Table 7
Protocol: Test objective: To investigate the antitumor efficacy of the above compounds in an animal tumor model of sarcoma SJSA-1.
as §2, §3
as §4, with “SJSA-1 cells were purchased from ATCC and cultured in a DMEM medium containing 10% fetal bovine serum at 37° C. in 5% CO2. Passaging” for “Passaging”, “2×10^7” for “7.5×10^6”, “100” for “120”, “three” for “four”
as §4, with “SJSA-1 cells were purchased from ATCC and cultured in a DMEM medium containing 10% fetal bovine serum at 37° C. in 5% CO2. Passaging” for “Passaging”, “2×10^7” for “7.5×10^6”, “100” for “120”, “three” for “four”

[5] = 15 mg/kg once a week for four weeks
[6] = 45 mg/kg once a week for four weeks
[7] = 15 mg/kg once a week for three weeks
[8] = 45 mg/kg once a week for three weeks

SMILES | A2780 (ovarian cancer) mean tumor volume (mm^3) Day 1 [1] [mm^3] | A2780 (ovarian cancer) mean tumor volume (mm^3) Day 4 [1] [mm^3] | A2780 (ovarian cancer) mean tumor volume (mm^3) Day 7 [1] [mm^3] | A2780 (ovarian cancer) mean tumor volume (mm^3) Day 10 [1] [mm^3] | A2780 (ovarian cancer) mean tumor volume (mm^3) Day 14 [1] [mm^3] | Growth rate (%) of A2780 (ovarian cancer) on Day 14 [1] [%] | SJSA-1 (sarcoma tissue) mean tumor volume (mm^3) Day 1 [2] [mm^3] | SJSA-1 (sarcoma tissue) mean tumor volume (mm^3) Day 4 [2] [mm^3] | SJSA-1 (sarcoma tissue) mean tumor volume (mm^3) Day 7 [2] [mm^3] | SJSA-1 (sarcoma tissue) mean tumor volume (mm^3) Day 10 [2] [mm^3] | SJSA-1 (sarcoma tissue) growth rate (%) on Day 14 [2] [%] | SJSA-1 (sarcoma tissue) mean tumor volume (mm^3) Day 14 [2] [mm^3] | colo320 (colorectal cancer cell) growth rate (%) [3, 5] [%] | colo320 (colorectal cancer cell) mean tumor volume (mm^3) [3, 5] [mm^3] | colo320 (colorectal cancer cell) growth rate (%) [3, 6] [%] | colo320 (colorectal cancer cell) mean tumor volume (mm^3) [3, 6] [mm^3] | SJSA-1 (sarcoma tissue) growth rate (%) [4, 7] [%] | SJSA-1 (sarcoma tissue) mean tumor volume (mm^3) [4, 7] [mm^3] | SJSA-1 (sarcoma tissue) growth rate (%) [4, 8] [%] | SJSA-1 (sarcoma tissue) mean tumor volume (mm^3) [4, 8] [mm^3]
CC[C@@]1(O)C(=O)OCc2c1cc1n(c2=O)Cc2c-1nc1ccccc1c2CCN(C(=O)[C@H](CC(C)C)NC(=O)[C@H](CC(N)=O)NC(=O)[C@H](C)NC(=O)[C@H](C)NC(=O)CCOCCOCCOCCOCCOCCOCCNC(=O)CCN1C(=O)C=CC1=O)C1CC1 [MI-6PEG-AANL-D6] ({Propanoyl(3-maleimido)-PEG6}-AANL-X3) | 128.26 | 247.43 | 396.52 | 561.20 | 726.75 | 566.62 | 145.91 | 309.25 | 606.14 | 715.43 | 782.85 | 1142.25 | 859.22 | 919.8 | 398.47 | 468.4 | 978.89 | 1321.5 | 675.84 | 849.4
CC[C@@]1(O)C(=O)OCc2c1cc1n(c2=O)Cc2c-1nc1ccccc1c2CCN(C(=O)[C@H](CC(C)C)NC(=O)[C@H](CC(N)=O)NC(=O)[C@H](C)NC(=O)[C@H](C)NC(=O)CCOCCOCCOCCOCCOCCOCCNC(=O)CCN1C(=O)C=CC1=O)C1CCC1 [MI-6PEG-AANL-D7] ({Propanoyl(3-maleimido)-PEG6}-AANL-X1) | 134.03 | 241.52 | 494.28 | 748.06 | 1327.25 | 990.26 | 147.33 | 313.65 | 644.39 | 795.08 | 810.17 | 1193.62 | 857.61 | 1008.1 | 514.51 | 604.8 | 1036.16 | 1295.2 | 788.44 | 989.1
